# Laboratory results published in PubChem BioAssay AID1347165 (National Center for Advancing Translational Sciences (NCATS), 2019).
# The campaign covered roughly 220,000 compounds. About 5,700 (2.6%) were called active. The shares of active, inactive and inconclusive entries below differ from those in the screen. The call rests on the fitted dose curve; in most records, active means well fitted inhibition curve with a large enough effect; inconclusive means small, poorly fitted or top-dose-only effect; inactive means no such curve, though single readings can be large or run the other way. A potency beside an inconclusive call is a rough fit, not a confirmed value.
# Biological target: Lysine-specific demethylase 5B (Homo sapiens) (UniProt Q9UGL1)
# Chain of UniProt Q9UGL1 (Q9UGL1 whole entry, looked up): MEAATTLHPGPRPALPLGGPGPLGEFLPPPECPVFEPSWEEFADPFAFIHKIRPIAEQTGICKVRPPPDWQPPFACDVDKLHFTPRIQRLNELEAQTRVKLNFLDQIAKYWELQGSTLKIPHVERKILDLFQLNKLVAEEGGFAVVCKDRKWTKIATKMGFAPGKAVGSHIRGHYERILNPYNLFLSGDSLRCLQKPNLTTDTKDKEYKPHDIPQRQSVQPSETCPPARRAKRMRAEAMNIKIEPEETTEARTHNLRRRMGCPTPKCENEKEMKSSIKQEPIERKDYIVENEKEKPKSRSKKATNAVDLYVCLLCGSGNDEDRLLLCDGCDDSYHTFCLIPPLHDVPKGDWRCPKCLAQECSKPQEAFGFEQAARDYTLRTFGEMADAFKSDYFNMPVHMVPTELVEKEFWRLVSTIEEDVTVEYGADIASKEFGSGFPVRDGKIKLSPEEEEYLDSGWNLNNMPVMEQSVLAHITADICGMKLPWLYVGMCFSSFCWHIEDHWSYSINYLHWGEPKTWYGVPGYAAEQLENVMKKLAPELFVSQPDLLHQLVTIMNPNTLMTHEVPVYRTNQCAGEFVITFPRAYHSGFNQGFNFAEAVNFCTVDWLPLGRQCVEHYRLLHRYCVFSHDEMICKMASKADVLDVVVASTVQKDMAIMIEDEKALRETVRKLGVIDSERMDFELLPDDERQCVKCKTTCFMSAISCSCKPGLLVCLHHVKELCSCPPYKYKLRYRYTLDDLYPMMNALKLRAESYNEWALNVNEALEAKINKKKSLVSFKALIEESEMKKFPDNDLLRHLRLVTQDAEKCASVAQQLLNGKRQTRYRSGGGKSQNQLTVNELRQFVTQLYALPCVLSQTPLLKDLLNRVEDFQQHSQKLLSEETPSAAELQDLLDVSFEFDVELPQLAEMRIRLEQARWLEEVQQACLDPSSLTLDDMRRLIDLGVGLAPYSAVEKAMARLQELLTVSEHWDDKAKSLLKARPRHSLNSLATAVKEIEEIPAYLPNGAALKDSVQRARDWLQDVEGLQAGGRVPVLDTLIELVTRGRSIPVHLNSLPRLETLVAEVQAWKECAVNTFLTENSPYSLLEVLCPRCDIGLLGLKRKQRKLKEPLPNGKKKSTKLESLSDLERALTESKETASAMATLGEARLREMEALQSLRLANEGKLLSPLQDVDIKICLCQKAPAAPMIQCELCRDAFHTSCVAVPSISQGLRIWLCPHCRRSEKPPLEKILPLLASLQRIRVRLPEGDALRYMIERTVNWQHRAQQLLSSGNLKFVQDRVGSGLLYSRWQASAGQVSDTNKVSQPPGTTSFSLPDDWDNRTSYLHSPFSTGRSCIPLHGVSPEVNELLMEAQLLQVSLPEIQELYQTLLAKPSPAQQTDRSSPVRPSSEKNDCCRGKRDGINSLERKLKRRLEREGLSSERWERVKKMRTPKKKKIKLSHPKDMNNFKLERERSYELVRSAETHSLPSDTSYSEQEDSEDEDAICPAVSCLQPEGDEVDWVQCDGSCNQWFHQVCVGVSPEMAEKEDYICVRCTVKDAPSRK
# Assay: Primary screen for KDM5B Histone Demethylases FDH-coupled qHTS; further: nearly all actives have a fitted effect of over 70% in size; on activity change, negative = inhibition: 0% is about no effect
# Settings: FDH-coupled NADH fluorescence (FDH is formaldehyde dehydrogenase); activity change, negative = inhibition: at 57.7 µM (top of the series) unless noted
# In short: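 Here, H3K4me3 peptide (12.5 µM in substrate mix) is demethylated by KDM5BΔAP, 200 nM final, after 10 min compound exposure. Formaldehyde product is coupled through FDH (0.25 U/mL in mix) to NADH fluorescence; 30-min ΔRFU feeds dose-response curves.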
# Potency means the concentration at half of the fitted maximal effect; tags describe the fitted curve by direction and shape.
Structure (SMILES),Potency,"activity change, negative = inhibition"
Nc1nccnc1C(=O)NCc1cccnc1,"inconclusive: 22.4 µM [inhibitor, partial curve, poor fit]",–
O=C(Cn1c(=O)ccc2cc(S(=O)(=O)N3CCCC3)ccc21)NCc1ccc(F)cc1,"inconclusive: 20 µM [inhibitor, partial curve, poor fit]",–
CC(C)CC(=O)N1CCC2(CC1)OCC(C(=O)N1CCOCC1)N2C(=O)c1ccccc1 (configuration not stated),–,inactive: -8.53%
CC(C)c1ccc2oc(=O)cc(CN3CCC(C(N)=O)CC3)c2c1,–,inactive: -0.206%
CCOP(=O)(OCC)c1nc(-c2cccc3ccccc23)oc1NC,–,inactive: 1480%
Cc1ccc2nc(C3CCCN(Cc4cccc(-c5ccc(F)cc5F)c4)C3)[nH]c(=O)c2c1 (configuration not stated),"inconclusive: 31.6 µM [inhibitor, single point]",–
CC(C)c1cc(C(=O)N/N=C/c2ccoc2)c(O)c(C(C)C)c1,"inconclusive: 39.8 µM [inhibitor, partial curve, poor fit]",–
CC(C)COC(=O)COc1ccc2c(=O)c(Oc3ccccc3Cl)coc2c1,–,inactive: 14%
CCOC(=O)C1=C(CS(=O)(=O)c2ccc(C)c(C)c2)NC(=O)NC1c1ccccc1OCC (configuration not stated),–,inactive: -29.1%
CC1(C)Cc2c(C#N)c(NCCO)nc(-c3ccco3)c2CO1,"inconclusive: 28.2 µM [inhibitor, partial curve, poor fit]",–
COc1cc(Cl)ccc1C(=O)N1CCN(c2cc(-c3cccs3)[nH]n2)CC1,"inconclusive: 28.2 µM [inhibitor, single point]",–
Cc1cc2oc(C(=O)NCC(c3cccs3)N(C)C)cc(=O)c2cc1Cl (configuration not stated),–,inactive: 7.09%
CCCCOC(=O)/C(C#N)=C/c1ccc(-c2ccccc2)o1,–,inactive: 14%
CC(C)c1ccc(C(=O)N2C3CCCC2CC(=O)C3)cc1,–,inactive: 20.3% [at 86.2 µM]
O=C(c1ccc2nc(-c3ccccc3)cn2c1)N1C[C@@H]2CCC[C@H]1C2,active: 22.4 µM,–
Cc1ccccc1OCC(=O)N(Cc1ccc(C(C)C)cc1)C1CCS(=O)(=O)C1 (configuration not stated),"inconclusive: 5.62 µM [inhibitor, partial curve, poor fit]",–
O=C(O)c1ccccc1Br,"inconclusive: 31.6 µM [inhibitor, single point]",–
COc1cccc(-c2nnc(SCC(=O)Nc3ccc4c(c3)OCO4)n2-n2cccc2)c1,–,inactive: -6.6%
O=C(NCc1ccc(Cl)cc1)c1cc(-c2ccc(F)cc2)on1,–,inactive: 3.78%
O=C(NC1CCCC1)N1CCc2nnc(C3CC3)n2CC1,–,inactive: 24.2%
COC(=O)c1ccc(Cl)cc1NC(=O)N1CCC(CN2CCC(C)CC2)CC1,"inconclusive: 15.8 µM [inhibitor, partial curve, poor fit]",–
CCc1ccc2oc(C(=O)N(Cc3ccc(Cl)cc3)C3CCS(=O)(=O)C3)cc(=O)c2c1 (configuration not stated),–,inactive: -3.34%
O=C(COc1ccc(Br)cc1)Nc1cccc2cccnc12,"inconclusive: 39.8 µM [inhibitor, single point]",–
Cc1cccc(CN2C[C@@H]3C(=O)N(CCN4CCc5ccccc5C4)C(=O)[C@@H]3C2)c1,"inconclusive: 39.8 µM [inhibitor, partial curve, poor fit]",–

Structure (SMILES),Potency,"activity change, negative = inhibition"
CN(C)Cc1nc(SCC(=O)Nc2ccc(F)cc2)c2ccccc2n1,–,inactive: 15.9%
Cc1oc(-c2cccs2)nc1CC(=O)Nc1ccccc1-c1ccccc1,"inconclusive: 25.1 µM [inhibitor, partial curve, poor fit]",–
CCN1c2cc(C(=O)Nc3cccc(OC(F)(F)F)c3)ccc2C(=O)N2CCCCC21 (configuration not stated),"inconclusive: 25.1 µM [inhibitor, partial curve, poor fit]",–
O=C(Cn1nc2c(cc1=O)CCCC2)Nc1ccc(Br)cc1F,–,inactive: 11.9%
CCC(C)NC(=O)NCC12CC3CC(CC(C3)C1)C2 (configuration not stated),–,inactive: 16.4%
CCOc1ccc(OCC)c(N)c1,–,inactive: -31.1%
Cc1nn(CC(=O)Nc2ccc(N3CCCCC3)cc2)c(=O)c2ccccc12,–,inactive: 18.1%
CN1c2cc(C(=O)N3CCc4ccccc4C3)ccc2C(=O)N2CCCC21 (configuration not stated),"inconclusive: 28.2 µM [inhibitor, partial curve, poor fit]",–
N#CCCCCOc1ccc(-c2ccccc2)cc1,–,inactive: -2.5%
CCOCCCNC(=S)NC1CC1,–,inactive: 15.9%
CCCCCCC1COC(c2ccc(O)cc2)OC1 (configuration not stated),"inconclusive: 39.8 µM [inhibitor, single point]",–
CCOc1ccc(NC(=O)Cn2c(C)ccc(NC(=O)Nc3ccc(C)cc3)c2=O)cc1,"inconclusive: 39.8 µM [inhibitor, single point]",–
O=C(O)C1=CC(c2ccc(Br)cc2)n2ncnc2N1 (configuration not stated),"inconclusive: 25.1 µM [inhibitor, single point]",–
Cc1ccc(C(=O)N2CCC(C(NC(=O)c3cccs3)C(=O)NC3CC3)CC2)cc1 (configuration not stated),–,inactive: 2.4%
CC(=O)Nc1ccc(CN2CCCC3(COc4ccccc4C(=O)N3)C2)cc1 (configuration not stated),"inconclusive: 39.8 µM [inhibitor, partial curve, poor fit]",–
Cn1cc(C(NC(=O)c2ccc3c(c2)ncn3CCO)C2CC(O)C2)cn1 (configuration not stated),–,inactive: 36.7%
COc1ccc(CNC(=O)C2CCN(C(=O)c3cc4c(=O)[nH]c(C)cn4n3)CC2)cc1,–,inactive: -24%
COc1ccc(NC(=O)c2nc(S(=O)(=O)Cc3ccc(C)cc3)ncc2Cl)cc1,"inconclusive: 6.31 µM [inhibitor, partial curve, poor fit]",–
CC(=O)Nc1ccc(NC(=O)CSc2nc(C3CC3)n(-c3ccccc3)n2)cc1,–,inactive: 6.13%
O=C(O)Cn1nc(N2CCN(c3ccccc3)CC2)ccc1=O,"inconclusive: 3.98 µM [inhibitor, partial curve, poor fit]",–
COc1ccc(-c2cc(N3CCCC(NC(=O)c4cccc(Br)c4)C3)n[nH]2)cc1 (configuration not stated),"inconclusive: 12.6 µM [inhibitor, partial curve]",–
Cc1cc(C)c2oc(C(=O)Nc3ccc(S(=O)(=O)N(C)Cc4ccccc4)cc3)cc(=O)c2c1,–,inactive: 5.42%
Cc1sc2c(c1C)c(=O)n(Cc1ccccc1)c(=O)n2CC(=O)Nc1cccc(Cl)c1,–,inconclusive: -36.4% [inhibitor]
CN(C)CC(O)COc1ccc(NC(=O)Nc2cccc(F)c2)cc1 (configuration not stated),–,inactive: 15.4%

Structure (SMILES),Potency,"activity change, negative = inhibition"
O=C(NCc1ccc(F)cc1)c1cnc(Cl)c(Cl)c1,–,inactive: 30.2%
Cc1ccc(S(=O)(=O)Cc2nc(-c3ccc(C(=O)NCCN(C)C)cc3)oc2C)cc1,"inconclusive: 25.1 µM [inhibitor, partial curve, poor fit]",–
COc1ccc(-c2noc(-c3cccn3CC(=O)N3CCN(c4ccccc4F)CC3)n2)cc1F,"inconclusive: 28.2 µM [inhibitor, partial curve, poor fit]",–
C#CCOc1ccccc1CNC1CCN(Cc2ccccc2)CC1,"inconclusive: 14.1 µM [inhibitor, partial curve, poor fit]",–
CCc1ccc(S(=O)(=O)c2cnc(SCC(=O)Nc3ccc(OC)cc3OC)[nH]c2=O)cc1,"inconclusive: 17.8 µM [inhibitor, partial curve, poor fit]",–
Cc1ccc(N2C(=O)C(CC(=O)Nc3ccccc3)N(CCC3=CCCCC3)C2=O)cc1 (configuration not stated),"inconclusive: 15.8 µM [inhibitor, partial curve, poor fit]",–
CNC(=O)C(C)Sc1nc(-c2ccccc2)c(-c2ccccc2)o1 (configuration not stated),–,inactive: 16.2%
CCOC(=O)C1=C(C)N(c2ccc3c(c2)OCO3)C(=O)NC1c1ccccc1 (configuration not stated),–,inactive: -0.791%
CC(=O)c1c(C)[nH]c(-c2csc(CC(=O)Nc3ccccc3C)n2)c1C,–,inactive: 3.32%
CCCC(=O)Nc1ccc(CNCc2ccc(F)c(Br)c2)cc1,–,inactive: 11%
O=C(c1cc(C2CC2)[nH]n1)N1C[C@@H](CO)[C@H](c2ccccn2)C1,"inconclusive: 2.24 µM [inhibitor, full curve, poor fit]",–
COc1ccc(CCC(=O)N2CC[C@@H]3COCCN(Cc4ccncc4)[C@@H]3C2)cc1,"inconclusive: 31.6 µM [inhibitor, partial curve, poor fit]",–
CC(C)NC(=O)N1CCC(c2nnc3n2CCNC3)CC1,"inconclusive: 56.2 µM [inhibitor, partial curve, poor fit]",–
CCC1Oc2ccc(NC(=O)c3ccc4c(c3)OCO4)cc2CN(Cc2ccc(F)cc2)C1=O (configuration not stated),"inconclusive: 25.1 µM [inhibitor, single point]",–
O=C(CN1C(=O)S/C(=C\c2cccc(Cl)c2)C1=O)Nc1ccc2oc(=O)ccc2c1,–,inactive: 14.3%
CCN(Cc1ccco1)C(=O)c1cc2ccc(OC)cc2[nH]1,"inconclusive: 31.6 µM [inhibitor, single point]",–
COc1ccc(-c2cc(-c3cnc4[nH]ccc4c3)cn3cncc23)cn1,"inconclusive: 35.5 µM [inhibitor, partial curve, poor fit]",–
O=c1ncn(Cc2ccccc2)c2ccc(-c3ccc(O)c(F)c3)nc12,–,inactive: -19.7% [at 86.2 µM]
CCN(CC)Cc1cnc2c(C(=O)Nc3ccc(C)cc3Cl)cnn2c1,"inconclusive: 15.8 µM [inhibitor, partial curve, poor fit]",–
CC1(c2ccccc2)CC(C)(C)N(C(=O)c2ccccc2Cl)c2ccccc21 (configuration not stated),"inconclusive: 14.1 µM [inhibitor, partial curve, poor fit]",–
COc1cccc(C(=O)OCCOc2ccccc2Cl)c1O,–,inactive: 8.97%
O=C(NC1CCN(c2cc(-c3ccc(Cl)cc3)[nH]n2)C1)c1ccc2cc[nH]c2c1 (configuration not stated),"inconclusive: 14.1 µM [inhibitor, partial curve, poor fit]",–
CCCCC(=O)Nc1ccc(OCc2cc(=O)n3ccc(C)cc3n2)cc1,"inconclusive: 35.5 µM [inhibitor, single point]",–
Cc1ccc(/C=C/C(=O)c2ccccc2)o1,"inconclusive: 22.4 µM [inhibitor, single point]",–
